Measured values from patent US5098708A.

Tested on: human T-lymphotropic virus type III B (HTLV-IIIB)
Assay: Inhibition of HIV-induced cell damage in infected MT-4 cells (trypan blue dye exclusion)
Conditions: HIV-infected MT-4 cells; concentration higher than 25 μg/ml; FIG. 11

`C/C1=C\C=C\C2(C)C=C(CO[C@H]3O[C@H](CO)[C@H](O)[C@H](O)[C@H]3O)C(C)CC23OC(O)C(C3=O)C(O)/C=C/C2(C)C=C(C=O)C(C)CC23OC(O)C(C3=O)C(O)/C(C)=C/C=C/C2C=C(CO[C@H]3O[C@H](CO)[C@H](O)[C@H](O)[C@H]3O)C(C)CC23OC(O)C(C3=O)C(O)/C=C/C2(C)C=C(C=O)C(C)CC23OC(O)C(C3=O)C1O` (stereo partly shown) was tested, and the “Cell damage induced by HIV” value was “significantly inhibited”.
